# Source: the supplement of paper PMC8728848
# The other results are listed elsewhere or left out.
# B1: Pbx1 (Cryptococcus neoformans) (protein)
# chain: ATTKCLVSGDQDSINNALALGGEGTTVTLCPGSVHRLNSSIIFTAPSQTLTTLGNPKDRNRAMLVVDGEDLACAIRADCKQCSHAMIRSLVIDGNRPQLLRIPKGDALIEVGNAESQTVRDCKLYEPRGWSALHFREGDERQCRFGHIVDNEIGPCGEEWDDEYDSMDETKPLWGNPRADGISLACKDSIVERNVVYDATDGAIVLFGSAGSTVKNNHVYARTRVILGGINLVDYEPWDGDYTNVKVHHNHLYALGRYFKVGIVIGPASWSDDTESVVHSASVTDNEFSGGYWGYGIVVASAKNFEVLRNKVIWDGEQGVARFSGVPGSRCPKAPENGKPTAFLINRGSAKGIFQDDFVNGEVQHIICLNPDQDPPYKPWRFRDSPEAIAAKQAENPTANSAFDSRIAEALVSYQMSLLNSMDAMTQKVEHLTNPIVDDALPFVHEHERAEADKKARQEASRKEKESGNKDVDMLNVKVEELEKSGRRLKKALDGLKSDFEGLSGRLKKSADENKPIIETIFVTSQNLLLGATSQQN
# Key:
# Assay in all cases: glycan array binding signal (z-score within array); higher = stronger binding
# Conditions in all cases: glycan notation: IUPAC condensed, linker removed
# [1] = target: Gal6S(b1-4)GlcNAc
# Procedure, shortened: (§1)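 Negative Z-scores can be read as non-binding. The Z-score is calculated within each array and then averaged across arrays of one protein sequence at different concentrations or buffers and across linkers. Arrays, 3228 in all, were curated from the Consortium for Functional Glycomics database and kept only where the protein sequence was available.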
# [2] = target: Gal6S(b1-4)GlcNAc6S
# Procedure, shortened: as §1
# [3] = target: GalNAc(a1-3)Gal
# Procedure, shortened: as §1
# [4] = target: GalNAc(a1-3)GalNAc
# Procedure, shortened: as §1
# [5] = target: GalNAc(a1-3)GalNAc(a1-3)Gal(a1-4)Gal(b1-4)GlcNAc
# Procedure, shortened: as §1
# [6] = target: GalNAc(a1-3)GalNAc(b1-3)Gal(a1-4)Gal(b1-4)Glc
# Procedure, shortened: as §1
# [7] = target: GalNAc(b1-3)Gal
# Procedure, shortened: as §1
# [8] = target: GalNAc(b1-3)Gal(a1-4)Gal(b1-4)GlcNAc
# Procedure, shortened: as §1
# [9] = target: GalNAc(b1-3)Gal(a1-4)Gal(b1-4)GlcNAc(b1-3)Gal(b1-4)Glc
# Procedure, shortened: as §1
# [10] = target: GalNAc(b1-3)Gal(a1-6)Gal(b1-4)Glc
# Procedure, shortened: as §1
# [11] = target: GalNAc(b1-3)GalNAc
# Procedure, shortened: as §1
# [12] = target: GalNAc(b1-3)GlcNAc
# Procedure, shortened: as §1
# [13] = target: GalNAc(b1-4)Gal(b1-4)Glc
# Procedure, shortened: as §1
# [14] = target: GalNAc(b1-4)GlcNAc
# Procedure, shortened: as §1
# [15] = target: GalNAc(b1-4)GlcNAc(b1-2)Man
# Procedure, shortened: as §1
# [16] = target: GalNAc(b1-4)GlcNAc(b1-2)Man(a1-3)[GalNAc(b1-4)GlcNAc(b1-2)Man(a1-6)]Man(b1-4)GlcNAc(b1-4)GlcNAc
# Procedure, shortened: as §1
# [17] = target: GalNAc(b1-4)GlcNAc(b1-3)GalNAc(b1-4)GlcNAc
# Procedure, shortened: as §1
# [18] = target: GalNAc(b1-4)GlcNAc6S
# Procedure, shortened: as §1
# [19] = target: GalNAc(b1-6)GalNAc
# Procedure, shortened: as §1
# [20] = target: GalNAc3S(b1-4)GlcNAc
# Procedure, shortened: as §1
# [21] = target: GalNAc3S(b1-4)GlcNAc3S
# Procedure, shortened: as §1
# [22] = target: GalNAc3S(b1-4)[Fuc(a1-3)]GlcNAc
# Procedure, shortened: as §1
# [23] = target: GalNAc4S6S(b1-4)GlcNAc
# Procedure, shortened: as §1
# [24] = target: GalNAc6S(b1-4)GlcNAc
# Procedure, shortened: as §1
# [25] = target: Glc(a1-4)Glc
# Procedure, shortened: as §1
# [26] = target: Glc(a1-4)Glc(a1-4)Glc(a1-4)Glc
# Procedure, shortened: as §1
# [27] = target: Glc(a1-6)Glc(a1-6)Glc
# Procedure, shortened: as §1
# [28] = target: Glc(a1-6)Glc(a1-6)Glc(a1-6)Glc
# Procedure, shortened: as §1
# [29] = target: Glc(b1-4)Glc
# Procedure, shortened: as §1
# [30] = target: Glc(b1-6)Glc
# Procedure, shortened: as §1
# [31] = target: GlcA(b1-3)Gal
# Procedure, shortened: as §1
# [32] = target: GlcA(b1-3)GlcNAc
# Procedure, shortened: as §1
# [33] = target: GlcA(b1-6)Gal
# Procedure, shortened: as §1
# [34] = target: GlcA3S(b1-3)Gal(b1-4)GlcNAc(b1-2)Man
# Procedure, shortened: as §1
# [35] = target: GlcA3S(b1-3)Gal(b1-4)GlcNAc(b1-3)Gal(b1-4)Glc
# Procedure, shortened: as §1
# [36] = target: GlcNAc(a1-3)Gal(b1-4)GlcNAc
# Procedure, shortened: as §1
# [37] = target: GlcNAc(a1-4)Gal(b1-3)GlcNAc
# Procedure, shortened: as §1
binder,measurement,setting,value
B1,glycan array binding signal (z-score),[1],-1.11
same,glycan array binding signal (z-score),[2],-0.075
same,glycan array binding signal (z-score),[3],-0.844
same,glycan array binding signal (z-score),[4],-0.282
same,glycan array binding signal (z-score),[5],-0.078
same,glycan array binding signal (z-score),[6],-0.349
same,glycan array binding signal (z-score),[7],0.919
same,glycan array binding signal (z-score),[8],-0.37
same,glycan array binding signal (z-score),[9],-0.341
same,glycan array binding signal (z-score),[10],-0.628
same,glycan array binding signal (z-score),[11],-0.877
same,glycan array binding signal (z-score),[12],0.848
same,glycan array binding signal (z-score),[13],-0.606
same,glycan array binding signal (z-score),[14],0.356
same,glycan array binding signal (z-score),[15],-0.323
same,glycan array binding signal (z-score),[16],-0.089
same,glycan array binding signal (z-score),[17],0.461
same,glycan array binding signal (z-score),[18],0.049
same,glycan array binding signal (z-score),[19],-0.445
same,glycan array binding signal (z-score),[20],-0.794
same,glycan array binding signal (z-score),[21],-0.382
same,glycan array binding signal (z-score),[22],0.766
same,glycan array binding signal (z-score),[23],0.624
same,glycan array binding signal (z-score),[24],0.388
same,glycan array binding signal (z-score),[25],0.352
same,glycan array binding signal (z-score),[26],-0.56
same,glycan array binding signal (z-score),[27],-0.461
same,glycan array binding signal (z-score),[28],-0.698
same,glycan array binding signal (z-score),[29],0.233
same,glycan array binding signal (z-score),[30],0.036
same,glycan array binding signal (z-score),[31],-0.024
same,glycan array binding signal (z-score),[32],0.759
same,glycan array binding signal (z-score),[33],-0.833
same,glycan array binding signal (z-score),[34],0.112
same,glycan array binding signal (z-score),[35],-0.292
same,glycan array binding signal (z-score),[36],0.052
same,glycan array binding signal (z-score),[37],0.141
